Results taken from the BET-seq Pho4 binding data (Le et al. 2018).
The other results are listed elsewhere or left out. Values were computed here from the reads of four pooled replicates and scatter widely.

target: T1, Pho4 (S. cerevisiae) (UniProt P07270); experiment: relative binding free energy (BET-seq); higher = weaker binding; conditions: reference: library average
T1 sequence: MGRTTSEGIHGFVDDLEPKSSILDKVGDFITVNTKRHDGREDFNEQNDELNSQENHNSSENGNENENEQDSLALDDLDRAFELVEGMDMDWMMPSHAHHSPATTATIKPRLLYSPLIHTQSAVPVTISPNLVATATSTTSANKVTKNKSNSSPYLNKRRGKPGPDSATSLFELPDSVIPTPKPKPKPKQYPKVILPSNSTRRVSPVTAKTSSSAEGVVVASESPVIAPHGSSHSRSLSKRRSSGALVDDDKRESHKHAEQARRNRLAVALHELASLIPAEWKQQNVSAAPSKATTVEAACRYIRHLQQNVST

Row | Sequence | relative binding free energy
1 | GGTATCACGTGTGGAC | 0.34 kcal/mol
2 | GAGGGCACGTGAGTAA | 0.15 kcal/mol
3 | CGTGTCACGTGACAGG | 0.18 kcal/mol
4 | CGTTTCACGTGCTTTG | 0.32 kcal/mol
5 | TGTATCACGTGGAGTC | 0.31 kcal/mol
6 | GTTAGCACGTGAGCTG | 0.12 kcal/mol
7 | ATTATCACGTGAAAGG | 0.42 kcal/mol
8 | CTTTGCACGTGGGGAA | -0.12 kcal/mol
9 | GGTGTCACGTGGGGGA | 0.08 kcal/mol
10 | AGGTTCACGTGGGCGA | 0.17 kcal/mol
11 | CTGGACACGTGTGGAA | 0.16 kcal/mol
12 | GAGGCCACGTGTGTTT | 0.13 kcal/mol
13 | GTTTTCACGTGTTCAA | 0.26 kcal/mol
14 | TTGTCCACGTGTCGGG | -0.06 kcal/mol
15 | GTGTCCACGTGTCTAG | 0.24 kcal/mol
16 | TGGTGCACGTGTTAAC | -0.02 kcal/mol
17 | TACGGCACGTGGCGGG | -0.18 kcal/mol
18 | TTTGACACGTGATTGG | 0.11 kcal/mol
19 | GGTTTCACGTGATTTT | 0.42 kcal/mol
20 | ATGAGCACGTGTTACG | -0.09 kcal/mol
21 | GCTGGCACGTGGGTTC | -0.03 kcal/mol

Row | Sequence | relative binding free energy
22 | GAAGGCACGTGAAGTT | 0.23 kcal/mol
23 | TGTGTCACGTGGAATT | 0.12 kcal/mol
24 | TTCTACACGTGGGATT | 0.08 kcal/mol
25 | GTCTTCACGTGTTTTG | 0.24 kcal/mol
26 | TAAGTCACGTGTTAGA | 0.08 kcal/mol
27 | ATGTGCACGTGGGACG | -0.07 kcal/mol
28 | AGTTACACGTGATATG | 0.29 kcal/mol
29 | AGGTTCACGTGCTCGG | 0.15 kcal/mol
30 | TCGGCCACGTGGTTGT | -0.07 kcal/mol
31 | ATATGCACGTGTTGCT | 0.01 kcal/mol
32 | GATGGCACGTGGGACG | -0.18 kcal/mol
33 | TTGGGCACGTGTGACC | 0 kcal/mol
34 | GTTGGCACGTGAGGGT | 0.25 kcal/mol
35 | AGGGGCACGTGTCGGG | -0.18 kcal/mol
36 | GTCAGCACGTGTGTTG | -0.1 kcal/mol
37 | TTTGCCACGTGCAGTG | -0.07 kcal/mol
38 | TGAGGCACGTGTGAGC | -0.19 kcal/mol
39 | GGGGTCACGTGTAGTC | 0.19 kcal/mol
40 | TGAGGCACGTGTCGAG | -0.09 kcal/mol
41 | CGCGTCACGTGGGTTA | -0.15 kcal/mol
42 | TTATCCACGTGAGTTT | 0.23 kcal/mol

Row | Sequence | relative binding free energy
43 | TTCGGCACGTGGTGTC | -0.21 kcal/mol
44 | TGTAACACGTGTGTCT | 0.02 kcal/mol
45 | GAAGTCACGTGGGGGC | 0.04 kcal/mol
46 | CATGACACGTGTGTGT | 0.02 kcal/mol
47 | GCATGCACGTGGGGGG | -0.17 kcal/mol
48 | GGGGACACGTGTGGTT | 0.11 kcal/mol
49 | GGGCGCACGTGGGACT | -0.03 kcal/mol
50 | TTTTTCACGTGTCATA | 0.26 kcal/mol
51 | TTTTCCACGTGGTTCA | 0.13 kcal/mol
52 | TATTTCACGTGCAATG | 0.24 kcal/mol
53 | TTGGGCACGTGGCGGT | -0.1 kcal/mol
54 | TGGCTCACGTGGGGTA | 0.13 kcal/mol
55 | TGTAACACGTGTACTG | -0.04 kcal/mol
56 | TTAAGCACGTGTTCTT | -0.16 kcal/mol
57 | ATGTACACGTGAGTCG | 0.27 kcal/mol
58 | GGTCGCACGTGTATAG | 0.05 kcal/mol
59 | TCGGCCACGTGGTTGG | -0.01 kcal/mol
60 | TATGTCACGTGGTAGT | 0 kcal/mol
61 | ATTGGCACGTGGATCT | -0.13 kcal/mol
62 | CTTTACACGTGCGGGG | 0.16 kcal/mol
63 | ATGTGCACGTGCGAGG | -0.06 kcal/mol
